Results are given in words; binding and its absence hold for the method and conditions named. For part of these data: Binding seen in cells or lysates may run through a third protein. Some binding calls cover weakened binding; strength is not graded here.
Columns and labels:
[1] = target: Full-length human BMAL1 with an N-terminal Strep tag (human) (UniProt O00327); assay: mass photometry; purified BMAL1-HIF2α sample at 20 nM; 20 mM Tris-HCl pH 8.0, 100 mM KCl, 0.5 mM TCEP; Refeyn OneMP; both purified
[2] = target: Full-length human BMAL1 with an N-terminal Strep tag (human) (UniProt O00327); assay: co-elution on heparin chromatography; HIF2α and BMAL1 co-expressed in insect cells, both Strep-tagged; Strep-Tactin affinity (1 M NaCl wash, elution at 200 mM NaCl with 5 mM desthiobiotin), then heparin column with a linear salt gradient; fractions read by SDS-PAGE; both purified
BMAL1-FLAG = BMAL1-FLAG (UniProt O00327); assay: co-IP; 786O cells transfected with FLAG-tagged bHLH-PAS proteins; RIPA lysates, anti-Flag M2 agarose beads; endogenous HIF2α and CLOCK detected by immunoblot; cells at 3% O2 for 4 h or 21% O2 before lysis

Protein sequences, listed by entry. Tags and fused reporters are not part of them.
UniProt O00327: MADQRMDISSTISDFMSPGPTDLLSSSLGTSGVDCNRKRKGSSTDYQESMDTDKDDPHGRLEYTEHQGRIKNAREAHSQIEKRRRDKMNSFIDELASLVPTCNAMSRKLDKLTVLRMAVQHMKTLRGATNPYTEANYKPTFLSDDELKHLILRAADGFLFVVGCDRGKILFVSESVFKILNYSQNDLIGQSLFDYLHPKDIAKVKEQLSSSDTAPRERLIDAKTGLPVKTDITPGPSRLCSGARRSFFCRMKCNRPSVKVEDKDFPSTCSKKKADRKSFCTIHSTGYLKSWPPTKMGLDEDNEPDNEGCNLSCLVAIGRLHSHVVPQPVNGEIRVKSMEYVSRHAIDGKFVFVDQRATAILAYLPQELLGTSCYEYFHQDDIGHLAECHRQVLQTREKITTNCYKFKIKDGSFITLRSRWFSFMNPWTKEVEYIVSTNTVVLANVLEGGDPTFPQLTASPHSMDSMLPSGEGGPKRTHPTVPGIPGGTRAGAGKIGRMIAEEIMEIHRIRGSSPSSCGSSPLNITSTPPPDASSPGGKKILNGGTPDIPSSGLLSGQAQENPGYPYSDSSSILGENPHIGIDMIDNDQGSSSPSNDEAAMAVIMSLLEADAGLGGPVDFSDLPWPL
UniProt Q99814: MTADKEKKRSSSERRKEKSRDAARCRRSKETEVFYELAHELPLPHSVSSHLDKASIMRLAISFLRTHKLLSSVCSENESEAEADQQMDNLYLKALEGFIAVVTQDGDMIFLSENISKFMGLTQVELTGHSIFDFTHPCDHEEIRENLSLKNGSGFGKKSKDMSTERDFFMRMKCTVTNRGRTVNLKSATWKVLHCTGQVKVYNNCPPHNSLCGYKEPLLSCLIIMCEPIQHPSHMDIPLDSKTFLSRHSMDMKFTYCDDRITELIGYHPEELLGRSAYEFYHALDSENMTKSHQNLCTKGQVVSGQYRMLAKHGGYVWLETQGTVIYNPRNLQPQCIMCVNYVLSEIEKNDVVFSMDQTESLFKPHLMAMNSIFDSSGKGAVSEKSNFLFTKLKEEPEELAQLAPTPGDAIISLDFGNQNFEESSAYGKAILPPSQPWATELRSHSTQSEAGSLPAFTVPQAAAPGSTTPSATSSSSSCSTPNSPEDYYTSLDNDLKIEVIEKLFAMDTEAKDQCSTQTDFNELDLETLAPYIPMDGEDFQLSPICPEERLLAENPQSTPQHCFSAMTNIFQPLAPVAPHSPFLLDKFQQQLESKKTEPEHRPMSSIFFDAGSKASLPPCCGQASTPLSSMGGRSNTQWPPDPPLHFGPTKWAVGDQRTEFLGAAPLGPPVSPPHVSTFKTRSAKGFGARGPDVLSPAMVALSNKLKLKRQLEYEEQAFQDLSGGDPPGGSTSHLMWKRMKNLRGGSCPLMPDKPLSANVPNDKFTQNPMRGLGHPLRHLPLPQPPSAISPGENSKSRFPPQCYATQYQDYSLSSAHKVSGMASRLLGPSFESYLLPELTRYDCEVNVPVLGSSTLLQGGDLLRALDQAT

| binding [1] | binding [2] | binding (BMAL1-FLAG) | Substance |
| --- | --- | --- | --- |
| binds | binds |  | Full-length human HIF2α with an N-terminal Strep tag (from UniProt Q99814 1-870) |
|  |  | binds | endogenous wild-type HIF2α (786O cells) (from UniProt Q99814 1-870) |

Source: publication PMC12215836
